Data reported in the supplement of paper PMC6451100.
This is one part of the list. Read counts after selection give these values, which scatter widely.

Molecular target: T1, Drosophila AGO2 (FLAG-tagged, S2-R+ lysate) (UniProt Q9VUQ5)
T1 sequence: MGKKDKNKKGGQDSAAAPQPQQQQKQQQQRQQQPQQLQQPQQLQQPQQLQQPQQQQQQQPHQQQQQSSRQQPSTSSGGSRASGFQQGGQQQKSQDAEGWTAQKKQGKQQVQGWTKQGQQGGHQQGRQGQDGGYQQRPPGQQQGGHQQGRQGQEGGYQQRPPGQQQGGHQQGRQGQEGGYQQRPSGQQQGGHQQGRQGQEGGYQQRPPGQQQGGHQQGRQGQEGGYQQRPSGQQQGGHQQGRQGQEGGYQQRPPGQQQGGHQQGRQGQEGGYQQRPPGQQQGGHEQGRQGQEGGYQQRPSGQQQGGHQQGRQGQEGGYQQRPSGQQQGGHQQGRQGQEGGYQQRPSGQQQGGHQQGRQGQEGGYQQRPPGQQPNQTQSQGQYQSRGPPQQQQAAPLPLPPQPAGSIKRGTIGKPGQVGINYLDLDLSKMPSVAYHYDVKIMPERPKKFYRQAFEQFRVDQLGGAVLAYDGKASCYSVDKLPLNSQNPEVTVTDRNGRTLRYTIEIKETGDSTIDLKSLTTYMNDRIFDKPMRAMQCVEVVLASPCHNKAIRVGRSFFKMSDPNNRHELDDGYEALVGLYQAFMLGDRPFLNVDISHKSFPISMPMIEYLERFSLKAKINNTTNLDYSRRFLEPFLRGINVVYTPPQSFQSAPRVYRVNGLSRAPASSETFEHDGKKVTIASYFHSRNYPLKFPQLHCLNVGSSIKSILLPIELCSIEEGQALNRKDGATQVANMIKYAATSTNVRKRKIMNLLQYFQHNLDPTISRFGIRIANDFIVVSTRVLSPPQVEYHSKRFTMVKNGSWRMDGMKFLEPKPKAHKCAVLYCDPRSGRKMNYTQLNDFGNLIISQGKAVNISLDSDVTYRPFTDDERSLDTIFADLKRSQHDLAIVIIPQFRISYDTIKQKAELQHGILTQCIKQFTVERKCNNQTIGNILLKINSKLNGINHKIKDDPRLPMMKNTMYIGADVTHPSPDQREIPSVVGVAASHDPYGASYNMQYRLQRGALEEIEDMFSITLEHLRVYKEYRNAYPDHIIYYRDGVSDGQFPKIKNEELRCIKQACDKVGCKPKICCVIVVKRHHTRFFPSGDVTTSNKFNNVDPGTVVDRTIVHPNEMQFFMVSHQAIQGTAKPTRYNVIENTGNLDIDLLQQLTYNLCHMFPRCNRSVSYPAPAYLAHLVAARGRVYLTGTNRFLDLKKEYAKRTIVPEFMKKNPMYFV
Test: AGO2 loading enrichment factor (IP read count / input read count, not library-size normalised) (ratio); higher = more efficient loading into AGO2
Details: randomized region: 5' 5N of miR-317 loop
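Note: Per-sequence enrichment computed with FASTAptamer, counting only reads that carry the expected constant 3′ region.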

Sequence	AGO2 loading enrichment factor
GAAATTGAAATGCAAGCAAG	0.346
CCTGTTGAAATGCAAGCAAG	0.323
ACCTCTGAAATGCAAGCAAG	0.189
GACGTTGAAATGCAAGCAAG	0.401
GACATTGAAATGCAAGCAAG	0.349
TACGCTGAAATGCAAGCAAG	0.13
AAAATTGAAATGCAAGCAAG	0.372
GGTCGTGAAATGCAAGCAAG	3.67
CCTAATGAAATGCAAGCAAG	0.296
ACATCTGAAATGCAAGCAAG	0.465
AACTCTGAAATGCAAGCAAG	0.371
AAACCTGAAATGCAAGCAAG	0.314
GAGGCTGAAATGCAAGCAAG	0.207
GCATATGAAATGCAAGCAAG	0.0855
TCAGTTGAAATGCAAGCAAG	0.326
GGAGTTGAAATGCAAGCAAG	2.23
CAAGTTGAAATGCAAGCAAG	0.236
AATAATGAAATGCAAGCAAG	0.388
ACTAATGAAATGCAAGCAAG	0.357
TCAGCTGAAATGCAAGCAAG	0.202
GAGTCTGAAATGCAAGCAAG	0.417
AGTTGTGAAATGCAAGCAAG	0.33
GGTGCTGAAATGCAAGCAAG	0.34
TATTGTGAAATGCAAGCAAG	0.224
AAATCTGAAATGCAAGCAAG	0.317

Sequence	AGO2 loading enrichment factor
CATAATGAAATGCAAGCAAG	0.374
GTTCGTGAAATGCAAGCAAG	0.251
GGGTCTGAAATGCAAGCAAG	2.55
TGGATTGAAATGCAAGCAAG	0.512
GGTACTGAAATGCAAGCAAG	0.636
TCAACTGAAATGCAAGCAAG	0.385
GATCATGAAATGCAAGCAAG	0.482
GTATGTGAAATGCAAGCAAG	0.289
TGCGTTGAAATGCAAGCAAG	0.192
ATGTATGAAATGCAAGCAAG	0.368
GATGGTGAAATGCAAGCAAG	2.1
GAGTATGAAATGCAAGCAAG	0.47
AACATTGAAATGCAAGCAAG	0.346
TGGTATGAAATGCAAGCAAG	0.465
GGGGCTGAAATGCAAGCAAG	1.13
GTCCTTGAAATGCAAGCAAG	0.679
AGAATTGAAATGCAAGCAAG	0.379
CGCATTGAAATGCAAGCAAG	0.259
GGCTTTGAAATGCAAGCAAG	0.27
GAACATGAAATGCAAGCAAG	0.404
AAGGGTGAAATGCAAGCAAG	1.88
GACTTTGAAATGCAAGCAAG	0.248
TAAACTGAAATGCAAGCAAG	0.373
TTCGCTGAAATGCAAGCAAG	0.246
ATTGTTGAAATGCAAGCAAG	0.33

Sequence	AGO2 loading enrichment factor
ATACATGAAATGCAAGCAAG	0.483
GGCACTGAAATGCAAGCAAG	0.386
ATCGCTGAAATGCAAGCAAG	0.147
CGGTATGAAATGCAAGCAAG	0.44
CAAGATGAAATGCAAGCAAG	0.325
TGTGGTGAAATGCAAGCAAG	0.659
AATACTGAAATGCAAGCAAG	0.298
GCATGTGAAATGCAAGCAAG	0.0342
GCAACTGAAATGCAAGCAAG	0.208
AGATGTGAAATGCAAGCAAG	0.317
GTAGTTGAAATGCAAGCAAG	0.411
AATCATGAAATGCAAGCAAG	0.448
TTCCCTGAAATGCAAGCAAG	0.631
CATGTTGAAATGCAAGCAAG	0.175
TAGACTGAAATGCAAGCAAG	0.279
CAGGGTGAAATGCAAGCAAG	1.58
ACAGTTGAAATGCAAGCAAG	0.376
AGTTATGAAATGCAAGCAAG	0.383
ACGGCTGAAATGCAAGCAAG	0.155
GAATTTGAAATGCAAGCAAG	0.433
GACCATGAAATGCAAGCAAG	0.68
TCTGATGAAATGCAAGCAAG	0.374
TAAGCTGAAATGCAAGCAAG	0.104
GAGGTTGAAATGCAAGCAAG	1.32
CACGCTGAAATGCAAGCAAG	0.0801

Sequence	AGO2 loading enrichment factor
AAGGCTGAAATGCAAGCAAG	0.095
TTCTGTGAAATGCAAGCAAG	0.626
ACAAGTGAAATGCAAGCAAG	0.377
CCCACTGAAATGCAAGCAAG	0.214
GGAACTGAAATGCAAGCAAG	0.645
GATTATGAAATGCAAGCAAG	0.42
CACACTGAAATGCAAGCAAG	0.367
TGCGATGAAATGCAAGCAAG	0.29
CCCTTTGAAATGCAAGCAAG	0.385
TCTCCTGAAATGCAAGCAAG	1.1
TCTTCTGAAATGCAAGCAAG	0.415
TAGAGTGAAATGCAAGCAAG	0.462
CGAGTTGAAATGCAAGCAAG	0.33
AAGCCTGAAATGCAAGCAAG	0.18
CTAGATGAAATGCAAGCAAG	0.341
CAGATTGAAATGCAAGCAAG	0.29
TCTAGTGAAATGCAAGCAAG	0.39
ACAGATGAAATGCAAGCAAG	0.422
CAATGTGAAATGCAAGCAAG	0.245
GGAGGTGAAATGCAAGCAAG	6.89
TACGTTGAAATGCAAGCAAG	0.372
GATAGTGAAATGCAAGCAAG	0.456
CCCGCTGAAATGCAAGCAAG	0.102
CATGATGAAATGCAAGCAAG	0.266
AAGTCTGAAATGCAAGCAAG	0.32

Sequence	AGO2 loading enrichment factor
CCAGTTGAAATGCAAGCAAG	0.327
TCATCTGAAATGCAAGCAAG	0.322
TCGTCTGAAATGCAAGCAAG	0.355
CTCCCTGAAATGCAAGCAAG	0.569
GCGAGTGAAATGCAAGCAAG	0.0744
GGTTATGAAATGCAAGCAAG	0.561
GGCCATGAAATGCAAGCAAG	1.53
CCGTTTGAAATGCAAGCAAG	0.139
TCGGGTGAAATGCAAGCAAG	2.33
TGAGGTGAAATGCAAGCAAG	1.2
ATGCGTGAAATGCAAGCAAG	0.375
ATCGATGAAATGCAAGCAAG	0.409
AAGATTGAAATGCAAGCAAG	0.348
GTGGCTGAAATGCAAGCAAG	0.364
TCTACTGAAATGCAAGCAAG	0.377
ATCGTTGAAATGCAAGCAAG	0.358
GATCTTGAAATGCAAGCAAG	0.139
AAAAGTGAAATGCAAGCAAG	0.366
GCCCTTGAAATGCAAGCAAG	0.433
CAACGTGAAATGCAAGCAAG	0.338
CGCTATGAAATGCAAGCAAG	0.375
CAATATGAAATGCAAGCAAG	0.444
CACCATGAAATGCAAGCAAG	0.551
AATCTTGAAATGCAAGCAAG	0.0764
CGGCCTGAAATGCAAGCAAG	0.374

Sequence	AGO2 loading enrichment factor
TGCAATGAAATGCAAGCAAG	0.123
GTCCCTGAAATGCAAGCAAG	0.356
TACTTTGAAATGCAAGCAAG	0.264
TCACGTGAAATGCAAGCAAG	0.523
CCGGCTGAAATGCAAGCAAG	0.208
CAACTTGAAATGCAAGCAAG	0.098
TGTATTGAAATGCAAGCAAG	0.285
CTGAGTGAAATGCAAGCAAG	0.484
GCCATTGAAATGCAAGCAAG	0.379
CAACCTGAAATGCAAGCAAG	0.25
TTGGGTGAAATGCAAGCAAG	1.41
CTGTATGAAATGCAAGCAAG	0.306
GGTAGTGAAATGCAAGCAAG	0.969
TTTTTTGAAATGCAAGCAAG	0.398
TGCACTGAAATGCAAGCAAG	0.15
CAAGCTGAAATGCAAGCAAG	0.063
TTTGATGAAATGCAAGCAAG	0.738
CTTGGTGAAATGCAAGCAAG	0.0502
AGCCTTGAAATGCAAGCAAG	0.147
ATTTGTGAAATGCAAGCAAG	0.28
CAAAGTGAAATGCAAGCAAG	0.345
TCCTTTGAAATGCAAGCAAG	0.268
CGGTTTGAAATGCAAGCAAG	0.277
GGCGGTGAAATGCAAGCAAG	1.17
GGCGCTGAAATGCAAGCAAG	0.334

Sequence	AGO2 loading enrichment factor
AACGGTGAAATGCAAGCAAG	0.458
CCGTATGAAATGCAAGCAAG	0.413
CTTCATGAAATGCAAGCAAG	0.129
TCCGTTGAAATGCAAGCAAG	0.261
GGTGTTGAAATGCAAGCAAG	0.914
CCCAATGAAATGCAAGCAAG	0.438
TATGGTGAAATGCAAGCAAG	0.405
GCACTTGAAATGCAAGCAAG	0.0946
TGGGTTGAAATGCAAGCAAG	1.43
CACAGTGAAATGCAAGCAAG	0.49
TGAATTGAAATGCAAGCAAG	0.442
AGGAATGAAATGCAAGCAAG	0.634
GATACTGAAATGCAAGCAAG	0.319
GTAAGTGAAATGCAAGCAAG	0.341
TATCCTGAAATGCAAGCAAG	0.405
TGTTATGAAATGCAAGCAAG	0.401
AGAGCTGAAATGCAAGCAAG	0.136
GGACATGAAATGCAAGCAAG	0.858
TACGATGAAATGCAAGCAAG	0.321
AATTCTGAAATGCAAGCAAG	0.396
TACCTTGAAATGCAAGCAAG	0.114
TTCGATGAAATGCAAGCAAG	0.314
GGAGATGAAATGCAAGCAAG	2.75
TTTAGTGAAATGCAAGCAAG	0.47
TTGGATGAAATGCAAGCAAG	0.474

Sequence	AGO2 loading enrichment factor
ACTTATGAAATGCAAGCAAG	0.359
GTGACTGAAATGCAAGCAAG	0.726
TGAACTGAAATGCAAGCAAG	0.42
ACAATTGAAATGCAAGCAAG	0.411
AGTACTGAAATGCAAGCAAG	0.382
CCTCATGAAATGCAAGCAAG	0.327
CTGAATGAAATGCAAGCAAG	0.483
GCTGCTGAAATGCAAGCAAG	0.0225
AGCCATGAAATGCAAGCAAG	0.439
GGGCATGAAATGCAAGCAAG	0.533
CGTGTTGAAATGCAAGCAAG	0.353
TTTATTGAAATGCAAGCAAG	0.505
CACCTTGAAATGCAAGCAAG	0.0571
AGACTTGAAATGCAAGCAAG	0.083
TACAATGAAATGCAAGCAAG	0.426
GTTTCTGAAATGCAAGCAAG	0.286
CGATTTGAAATGCAAGCAAG	0.454
ACTTTTGAAATGCAAGCAAG	0.398
CCGCCTGAAATGCAAGCAAG	0.306
GAAGGTGAAATGCAAGCAAG	1.34
TGGCATGAAATGCAAGCAAG	0.33
TTGGCTGAAATGCAAGCAAG	0.253
